Results on 31 compounds are retold here after the supplement of paper PMC4604168 (melanoma cell lines).

This is one part of the list. Single values are uncertain, as repeats are few or missing.
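Note: cells treated in 1,536-well plates, then fixed and DAPI-stained, with nuclei counted from automated high-throughput microscope images.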

In the assay the test system is UACC257. The assay is described as follows: cell count relative to DMSO control; melanoma cells; higher = more viable cells. To be noted: library dose: standard library concentration; 72 h.
Compound `C[C@@H]1CCN(C(=O)CC#N)C[C@@H]1N(C)c1ncnc2[nH]ccc12` + Cc1cc([N+](=O)[O-])ccc1NS(=O)(=O)c1cc(Cl)ccc1Cl [FH535] (first compound 5 µM, partner dose 5 µM) registered a cell count of 69.6%. `O=c1[nH]nc(Sc2ncc([N+](=O)[O-])s2)n1-c1ccc2c(c1)OCCO2` + COc1ccc(COc2ccc(Cc3cnc(N)nc3N)cc2OC)cc1 [GW2580] (first compound 1 µM, partner dose 5 µM) showed a cell count of 74.1%. Turning to `O=C(O)c1ccc(-c2c[nH]c3ncc(-c4ccccc4)cc23)cc1C1CCCC1` + Oc1cc(-c2nc(-c3ccccc3)[nH]c2-c2ccncc2)ccc1Cl [L779450] (first compound 0.8 µM, partner dose 1 µM), the cell count turned out to be 68.7%. `CC1(C)NC(=O)N(c2ccc([N+](=O)[O-])c(C(F)(F)F)c2)C1=O` [nilutamide] + COc1ccc(-c2ccc3c(N4CCOCC4)nc(N4C[C@@H](C)O[C@@H](C)C4)nc3n2)cc1CO [KU0063794] (first compound 5 µM, partner dose 0.1 µM) displayed a cell count of 110%. With `O=c1[nH]nc(Sc2ncc([N+](=O)[O-])s2)n1-c1ccc2c(c1)OCCO2` + C[C@@H](Oc1cc(-c2cnn(C3CCNCC3)c2)cnc1N)c1c(Cl)ccc(F)c1Cl [Crizotinib] (first compound 1 µM, partner dose 1 µM), the cell count came out at 90.3%. In turn, `O=C(Nc1cccc(Cl)c1)Nc1ncc(CCNc2ncnc3ccsc23)s1` + Cc1cc([N+](=O)[O-])ccc1NS(=O)(=O)c1cc(Cl)ccc1Cl [FH535] (first compound 0.004 µM, partner dose 5 µM) displayed a cell count of 65.7%. In the case of `O=c1[nH]nc(Sc2ncc([N+](=O)[O-])s2)n1-c1ccc2c(c1)OCCO2` + O=S(=O)(c1ccccc1)N(CC(F)(F)F)c1ccc(C(O)(C(F)(F)F)C(F)(F)F)cc1 [T0901317] (first compound 1 µM, partner dose 7 µM) it was 88.8%; in that of `COc1cc(Nc2ncc(F)c(Nc3ccc4c(n3)NC(=O)C(C)(C)O4)n2)cc(OC)c1OC` [Tamatinib] + O=c1cc(-c2cccc3c2Sc2ccccc2S3)oc(N2CCOCC2)c1 [KU55933] (first compound 2 µM, partner dose 5 µM), 101%. As to `O=C(O)c1ccc(-c2c[nH]c3ncc(-c4ccccc4)cc23)cc1C1CCCC1` + O=C1NC(=O)/C(=C/c2ccc(-c3ccc(F)cc3O)o2)S1 [AS252424] (first compound 0.8 µM, partner dose 5 µM), the cell count turned out to be 77.1%.

In turn, `O=c1[nH]nc(Sc2ncc([N+](=O)[O-])s2)n1-c1ccc2c(c1)OCCO2` + CCCCCCCCCCCC1=C(O)C(=O)C=C(O)C1=O [Embelin] (first compound 1 µM, partner dose 6 µM) showed a cell count of 73.5%.

As for `O=c1[nH]nc(Sc2ncc([N+](=O)[O-])s2)n1-c1ccc2c(c1)OCCO2` + Oc1cc(-c2nc(-c3ccccc3)[nH]c2-c2ccncc2)ccc1Cl [L779450] (first compound 1 µM, partner dose 1 µM), the cell count came out at 92.4%.

In turn, `O=c1[nH]nc(Sc2ncc([N+](=O)[O-])s2)n1-c1ccc2c(c1)OCCO2` + Oc1nc(-c2ccc(C(F)(F)F)cc2)nc2c1CSCC2 [XAV939] (first compound 1 µM, partner dose 10 µM) came in with a cell count of 83.7%.

In turn, `O=c1[nH]nc(Sc2ncc([N+](=O)[O-])s2)n1-c1ccc2c(c1)OCCO2` + COC(=O)c1sccc1S(=O)(=O)Nc1ccc(Nc2ccccc2)cc1OC [GSK0660] (first compound 1 µM, partner dose 5 µM) registered a cell count of 100%. For the compound `O=C(Nc1cccc(Cl)c1)Nc1ncc(CCNc2ncnc3ccsc23)s1` + COc1ccc2c(c1)CCC1C2CCC2(C)C(NCCCCCCN3C(=O)C=CC3=O)CCC12 [U73122] (first compound 0.004 µM, partner dose 2 µM), the cell count was determined as 80.5%.

Consider `COc1cc(Nc2ncc(F)c(Nc3ccc4c(n3)NC(=O)C(C)(C)O4)n2)cc(OC)c1OC` [Tamatinib] + Oc1cc(-c2nc(-c3ccccc3)[nH]c2-c2ccncc2)ccc1Cl [L779450] (first compound 2 µM, partner dose 1 µM), for which the cell count amounted to 91.1%. Compound `O=c1[nH]nc(Sc2ncc([N+](=O)[O-])s2)n1-c1ccc2c(c1)OCCO2` + O=C(Nc1ccccc1)c1cc([N+](=O)[O-])ccc1Cl [GW9662] (first compound 1 µM, partner dose 10 µM) displayed a cell count of 74%. `COc1cc(Nc2ncc(F)c(Nc3ccc4c(n3)NC(=O)C(C)(C)O4)n2)cc(OC)c1OC` [Tamatinib] + COc1cc2ncnc(Nc3ccc(Oc4ccccc4)cc3)c2cc1OC [SrcI1] (first compound 2 µM, partner dose 10 µM) gave a cell count of 68.1%. As to `O=c1[nH]nc(Sc2ncc([N+](=O)[O-])s2)n1-c1ccc2c(c1)OCCO2` + CC(C)CCN1c2nc(Nc3cc(F)c(O)c(F)c3)ncc2N(C)C(=O)C1C [BID1870] (first compound 1 µM, partner dose 1 µM), the cell count came to 99%.

In the case of `O=C(O)c1ccc(-c2c[nH]c3ncc(-c4ccccc4)cc23)cc1C1CCCC1` + COC(=O)c1sccc1S(=O)(=O)Nc1ccc(Nc2ccccc2)cc1OC [GSK0660] (first compound 0.8 µM, partner dose 5 µM), the cell count is 80.1%. In turn, `O=c1[nH]nc(Sc2ncc([N+](=O)[O-])s2)n1-c1ccc2c(c1)OCCO2` + Cn1cc(/C=C2\C(=O)Nc3cccnc32)c2ccccc21 [GW441756] (first compound 1 µM, partner dose 2 µM) returned a cell count of 94.2%.

The compound `O=c1[nH]nc(Sc2ncc([N+](=O)[O-])s2)n1-c1ccc2c(c1)OCCO2` + COc1ccc(-c2ccc3c(N4CCOCC4)nc(N4C[C@@H](C)O[C@@H](C)C4)nc3n2)cc1CO [KU0063794] (first compound 1 µM, partner dose 0.1 µM) displayed a cell count of 102%.

Compound `Cn1cncc1[C@@](N)(c1ccc(Cl)cc1)c1ccc2c(c1)c(-c1cccc(Cl)c1)cc(=O)n2C` [tipifarnib] + COc1ccc2c(c1)CCC1C2CCC2(C)C(NCCCCCCN3C(=O)C=CC3=O)CCC12 [U73122] (first compound 0.05 µM, partner dose 2 µM) showed a cell count of 114%. In turn, `O=c1[nH]nc(Sc2ncc([N+](=O)[O-])s2)n1-c1ccc2c(c1)OCCO2` + CCN(CC)CCCCNc1ncc2cc(-c3cc(OC)cc(OC)c3)c(NC(=O)NC(C)(C)C)nc2n1 [PD173074] (first compound 1 µM, partner dose 0.5 µM) displayed a cell count of 107%. The compound `O=c1[nH]nc(Sc2ncc([N+](=O)[O-])s2)n1-c1ccc2c(c1)OCCO2` + COc1cc2ncnc(Nc3ccc(Oc4ccccc4)cc3)c2cc1OC [SrcI1] (first compound 1 µM, partner dose 10 µM) registered a cell count of 82.4%. Take `O=c1[nH]nc(Sc2ncc([N+](=O)[O-])s2)n1-c1ccc2c(c1)OCCO2` + O=C1NC(=O)/C(=C/c2ccc(-c3ccc(F)cc3O)o2)S1 [AS252424] (first compound 1 µM, partner dose 5 µM): the cell count is 112%. `O=c1[nH]nc(Sc2ncc([N+](=O)[O-])s2)n1-c1ccc2c(c1)OCCO2` + CCc1ccc(CCOc2ccc(CC3SC(=O)NC3=O)cc2)nc1 [pioglitazone] (first compound 1 µM, partner dose 10 µM) returned a cell count of 81.7%. As for `O=c1[nH]nc(Sc2ncc([N+](=O)[O-])s2)n1-c1ccc2c(c1)OCCO2` + O=C(O)C(=O)Nc1sc2c(c1C(=O)O)CCNC2 [TCS401] (first compound 1 µM, partner dose 8.33333 µM), the cell count came out at 85.7%. The compound `O=c1[nH]nc(Sc2ncc([N+](=O)[O-])s2)n1-c1ccc2c(c1)OCCO2` + Nc1cccc2c1CN(C1CCC(=O)NC1=O)C2=O [lenalidomide] (first compound 1 µM, partner dose 5 µM) registered a cell count of 95.5%. With `O=c1[nH]nc(Sc2ncc([N+](=O)[O-])s2)n1-c1ccc2c(c1)OCCO2` + c1cc(-c2cnn3cc(-c4ccc(OCCN5CCCCC5)cc4)cnc23)ccn1 [Dorsomorphin] (first compound 1 µM, partner dose 2 µM), the cell count came out at 76.6%. For `O=c1[nH]nc(Sc2ncc([N+](=O)[O-])s2)n1-c1ccc2c(c1)OCCO2` + COc1ccc2c(c1)CCC1C2CCC2(C)C(NCCCCCCN3C(=O)C=CC3=O)CCC12 [U73122] (first compound 1 µM, partner dose 2 µM), the cell count is 89.1%.

Compound `C[C@@H]1CCN(C(=O)CC#N)C[C@@H]1N(C)c1ncnc2[nH]ccc12` + Oc1nc(-c2ccc(C(F)(F)F)cc2)nc2c1CSCC2 [XAV939] (first compound 5 µM, partner dose 10 µM) yielded a cell count of 81.6%.
